{"source": "PubChem BioAssay AID588855", "about": "(National Center for Advancing Translational Sciences (NCATS), 2011)", "note": "Screen size: about 410,000 compounds; about 5,000 (1.2%) were called active. Inconclusive means that the source gave no clear call. Such entries were picked first, then a sample of the others. Calls come from the whole dose curve; as a rule, active = well fitted inhibition curve with a large enough effect; inconclusive = small, poorly fitted or top-dose-only effect; inactive = no such curve, though single readings can be large or run the other way. Potencies of inconclusive entries are doubtful fits and often do not repeat. % is set by controls: 0 for no effect and ±100 for the full control effect; potency is the fitted concentration of half-maximal effect; tags give direction and shape of the fitted curve.", "data": [{"assay": "qHTS for Inhibitors of TGF-b; note: nearly all actives have a fitted effect of over 65% in size", "settings": "HepG2 CAGA-GFP TGF-b/SMAD3 reporter, GFP fluorescence, 18 h, TGF-beta stimulated, 500 pg/mL final; series mostly up to 46.1 µM; activity, negative = inhibition: at the top concentration", "method_in_brief": "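HEPG2 CAGA-GFP, 1000 cells/well; 2 h settle, 37 C; cpd via pin tool; TGF-b 500 pg/mL final; 18 h, 37 C; GFP imaging ex488/em500-530; %Activity normalised to -TGF-b and +DMSO controls; CRC fit, curve class.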", "values": [{"smiles": "CCCCCCCCNS(=O)(=O)CCNCc1ccc(OC)cc1", "Potency": "inconclusive: 35.5 µM [inhibitor, single point]"}, {"smiles": "CCOc1ccc(CN(C)C(=O)CNC(=O)c2ccc(Br)o2)cc1OC", "activity, negative = inhibition": "inactive: -2.45%"}, {"smiles": "CCN1CCN(C(=O)C2=CC(c3ccc(OC)cc3)=NS(=O)(=O)N2C)CC1", "Potency": "inconclusive: 35.5 µM [inhibitor, single point]"}, {"smiles": "CCOc1ccc(OCCN2CCCCC2)cc1", "Potency": "inconclusive: 35.5 µM [inhibitor, single point]"}, {"smiles": "CCC1C/C(=C\\c2cccnc2)C(=O)/C(=C/c2cccnc2)C1", "note": "(configuration not stated)", "Potency": "active: 3.98 µM"}, {"smiles": "Cc1nc2ccccn2c1C(=O)NC1CCCc2ccccc21", "note": "(configuration not stated)", "Potency": "inconclusive: 3.16 µM [inhibitor, full curve]"}, {"smiles": "COc1ccc(CCNC(=O)C(=O)NCC(c2cccs2)S(=O)(=O)c2ccc(C)cc2)cc1", "note": "(configuration not stated)", "activity, negative = inhibition": "inactive: -0.3%"}, {"smiles": "Cc1ccc(-n2cccc2/C=C2\\C(=N)N3N=C(c4ccco4)SC3=NC2=O)cc1", "activity, negative = inhibition": "inactive: -25.3%"}, {"smiles": "CCOC(=O)c1c(C)[nH]c(C)c1S(=O)(=O)N1CCN(c2cccc(C(F)(F)F)c2)CC1", "Potency": "inconclusive: 22.4 µM [inhibitor, single point]"}, {"smiles": "Cc1ccc(S(=O)(=O)N2CCC(C(=O)Nc3ccc(C)c(Cl)c3)CC2)cc1", "Potency": "inconclusive: 20 µM [inhibitor, partial curve, poor fit]"}, {"smiles": "CCOC(=O)c1c(C)oc2c1C(=O)c1ccccc1C2=O", "Potency": "active: 5.01 µM"}, {"smiles": "COc1ccnc(NCc2cccc(C(F)(F)F)c2)c1C#N", "Potency": "inconclusive: 2 µM [inhibitor, partial curve, poor fit]"}, {"smiles": "CC1=CCC(C(=O)O)C(C(=O)Nc2ccc(-c3nc4ccc(C)cc4s3)cc2)C1", "note": "(configuration not stated)", "activity, negative = inhibition": "inactive: -2.8%"}, {"smiles": "O=C(CC1C(=O)N(c2ccc(Cl)cc2)C(=S)N1CCc1ccncc1)Nc1ccc(F)cc1", "note": "(configuration not stated)", "Potency": "inconclusive: 17.8 µM [inhibitor, partial curve, poor fit]"}, {"smiles": "CCCCN(C)C(=O)c1ccc(Nc2nc(C(N)CCc3ccccc3)cs2)nc1", "note": "(configuration not stated)", "Potency": "inconclusive: 31.6 µM [inhibitor, single point]"}, {"smiles": "CN(C)Cc1ccc(-c2nc3cccc4c3n2CCNC4=O)cc1", "Potency": "inconclusive: 17.8 µM [inhibitor, partial curve, poor fit]"}, {"smiles": "CC#CCCCC(=O)Nc1cccc(C(=O)O)c1", "Potency": "inconclusive: 12.6 µM [inhibitor, single point]"}, {"smiles": "Cc1cc(Nc2ccc(Cl)cc2)nc(NCc2ccccc2)n1", "Potency": "inconclusive: 35.5 µM [inhibitor, single point]"}, {"smiles": "CN(C)CCC(=O)N1c2ccccc2Sc2ccc(C(F)(F)F)cc21", "Potency": "inconclusive: 35.5 µM [inhibitor, single point]"}, {"smiles": "COc1ccc(NC(=O)N(C)C[C@H]2Oc3ccc(NC(=O)Cn4cnnn4)cc3C(=O)N([C@H](C)CO)C[C@@H]2C)cc1", "Potency": "inconclusive: 12.6 µM [inhibitor, single point]"}, {"smiles": "Cc1ccc(NC(=O)c2ccc(CSc3nnc(C)s3)cc2)c(C)c1", "Potency": "inconclusive: 4.47 µM [inhibitor, full curve, poor fit]"}, {"smiles": "Cc1ccc(Nc2nc(N)c([N+](=O)[O-])c(NCCO)n2)cc1C", "Potency": "inconclusive: 14.1 µM [inhibitor, single point]"}, {"smiles": "CN=c1scc(C)n1/N=C/c1ccc2c(c1)OCO2", "Potency": "inconclusive: 35.5 µM [inhibitor, single point]"}, {"smiles": "CCOc1ccc(C(=O)NC(=S)Nc2ccccc2N2CCC(C)CC2)cc1[N+](=O)[O-]", "activity, negative = inhibition": "inactive: 24.6%"}, {"smiles": "CN(C)CCn1c(SCc2ccccc2C#N)nc2c(sc3ccccc32)c1=O", "activity, negative = inhibition": "inactive: 18.3%"}, {"smiles": "CC(C)c1cnc2c(c1SCC(=O)Nc1cccc(F)c1)c(=O)n(C)c(=O)n2C", "Potency": "inconclusive: 0.0891 µM [inhibitor, full curve, poor fit]"}, {"smiles": "Cc1ccc(Cl)cc1Nc1nn2c(=O)c3ccc(C(=O)N4CCCC(C)C4)cc3nc2s1", "note": "(configuration not stated)", "activity, negative = inhibition": "inactive: -25.2%"}, {"smiles": "O=C(NCC(c1ccco1)N1CCc2ccccc21)c1ccccc1", "note": "(configuration not stated)", "Potency": "inconclusive: 0.501 µM [inhibitor, partial curve, poor fit]"}, {"smiles": "O=C(Nc1cccc(F)c1)C1CCN(S(=O)(=O)c2cccc3nsnc23)CC1", "Potency": "inconclusive: 0.631 µM [inhibitor, partial curve, poor fit]"}, {"smiles": "CCc1cccc(CN2CCC(CNC(=O)Nc3ccc(Cl)cc3)CC2)c1", "activity, negative = inhibition": "inactive: 5.74%"}, {"smiles": "CCOc1ccc(N2Cc3ccccc3C2)cc1", "Potency": "inconclusive: 12.6 µM [inhibitor, single point]"}, {"smiles": "CC1CCN(C(=O)COC(=O)c2ccc3c(c2)OCO3)CC1", "Potency": "inconclusive: 5.62 µM [inhibitor, single point]"}, {"smiles": "CCCCCCCCCCCCCCCC[N+](C)(C)CCl", "Potency": "inconclusive: 35.5 µM [inhibitor, single point]"}, {"smiles": "CCOC(=O)C1=C(N)Oc2ccc3ccccc3c2C1c1ccc(O)cc1", "note": "(configuration not stated)", "Potency": "inconclusive: 25.1 µM [inhibitor, single point]"}, {"smiles": "C#CCOCCOCCOCCNc1nc(N2CCN(C(=O)CCCCCCCCCCNC(=O)Cn3cc(CCCCCN)nn3)CC2)nc(N2CCN(C(=O)CCCCCCCCCCNC(=O)[C@@H](CCSC)n3cc(CCO)nn3)CC2)n1", "Potency": "inconclusive: 25.1 µM [inhibitor, single point]"}, {"smiles": "O=C(NCCCN1CCOCC1)c1cccc(S(=O)(=O)Nc2ccc(F)cc2)c1", "activity, negative = inhibition": "inactive: 6.36%"}, {"smiles": "CC(C)OC(=O)c1ccc(NC(=O)CSc2nc3ncccc3[nH]2)cc1", "activity, negative = inhibition": "inactive: -21.2%"}, {"smiles": "Cc1ccc(Cl)cc1NC(=S)N(Cc1ccco1)C(C)c1cccs1", "note": "(configuration not stated)", "Potency": "inconclusive: 35.5 µM [inhibitor, single point]"}, {"smiles": "Cc1ccc(OCCCCNC2CCCC(C)C2C)c(C)c1", "note": "(configuration not stated)", "Potency": "inconclusive: 25.1 µM [inhibitor, single point]"}, {"smiles": "Cc1ccc(-n2c(-c3ccco3)nc3c(cnn3-c3ccccc3Cl)c2=O)cc1", "activity, negative = inhibition": "inactive: -20.6%"}, {"smiles": "Cc1ccc(NC(=O)Cn2ncc(Cl)c(Cl)c2=O)cc1S(=O)(=O)N1CCCCC1", "Potency": "inconclusive: 35.5 µM [inhibitor, single point]"}, {"smiles": "Cc1ccc(-c2nn3c(C)nnc3s2)cc1NC(=O)c1ccc(-c2cccc(Cl)c2)o1", "Potency": "inconclusive: 17.8 µM [inhibitor, single point]"}, {"smiles": "COC(=O)CN(c1ccc(C)cc1)S(=O)(=O)c1ccc2c(c1)n(C)c(=O)c(=O)n2C", "Potency": "inconclusive: 35.5 µM [inhibitor, single point]"}, {"smiles": "O=C(Nc1ccccc1)N1N=CCC1c1ccccc1", "note": "(configuration not stated)", "activity, negative = inhibition": "inactive: -3.83%"}, {"smiles": "N#CC1=C2SCN(Cc3ccco3)CN2C(=O)CC1c1cccc2ccccc12", "note": "(configuration not stated)", "Potency": "inconclusive: 12.6 µM [inhibitor, partial curve, poor fit]"}, {"smiles": "CNC(=S)N/N=C(\\C)c1ccc(Cl)c(Cl)c1", "activity, negative = inhibition": "inactive: -14.1%"}, {"smiles": "OCCCn1c(C2CCCN2c2nc(-c3ccc(Cl)cc3)cs2)nc2cc(Cl)c(N3CCCCC3)cc21", "note": "(configuration not stated)", "activity, negative = inhibition": "inactive: 4.95%"}, {"smiles": "Cc1ccc(S(=O)(=O)N/N=C/c2ccc3nccnc3c2)cc1", "activity, negative = inhibition": "inactive: -3.32%"}, {"smiles": "CC(=O)n1cc(N(C(=O)CCl)c2ccccc2)c2ccccc21", "Potency": "active: 7.08 µM"}, {"smiles": "Cc1ccc(/C=C(\\C#N)c2nn(-c3ccccc3)c(N)c2C#N)cc1", "Potency": "inconclusive: 4.47 µM [inhibitor, partial curve, poor fit]"}, {"smiles": "Cc1ccc(N(C)C(=O)c2cc(S(=O)(=O)N3CCOCC3)cn2C)cc1", "activity, negative = inhibition": "inactive: -0.0791%"}, {"smiles": "Cc1cc(NC(=O)CSc2nnc(-c3ccc(Br)o3)n2Cc2ccccc2)no1", "Potency": "inconclusive: 35.5 µM [inhibitor, single point]"}, {"smiles": "CCOC(=O)c1c(C)[nH]c(C)c1C(=O)COC(=O)CSc1ccc(C)cc1", "activity, negative = inhibition": "inactive: -13.6%"}, {"smiles": "O=C(Nc1ccc(Cl)cc1)Nc1ccccc1C(=O)O", "activity, negative = inhibition": "inactive: -26.1%"}, {"smiles": "Oc1ccccc1C(Nc1nccs1)c1ccc2cccnc2c1O", "note": "(configuration not stated)", "Potency": "inconclusive: 17.8 µM [inhibitor, partial curve, poor fit]"}, {"smiles": "COc1c(C(CC(C)C)OC(C)=O)ccc2c1C(=O)OCc1cc(C)cc(O)c1O2", "note": "(configuration not stated)", "Potency": "inconclusive: 25.1 µM [inhibitor, single point]"}, {"smiles": "CN1CCc2cc3c(c4c2[C@H]1[C@H](O)c1ccccc1-4)OCO3", "Potency": "inconclusive: 15.8 µM [inhibitor, partial curve, poor fit]"}, {"smiles": "Cc1ccc(CNc2nc3cc(-c4ccccc4C)sc3c(=O)n2C)c(C)c1", "Potency": "inconclusive: 10 µM [inhibitor, partial curve, poor fit]"}, {"smiles": "CCN(CCCNC(=O)C1c2ccccc2C(=O)N(CCOC)C1c1ccc(F)cc1)Cc1ccccc1", "note": "(configuration not stated)", "Potency": "inconclusive: 15.8 µM [inhibitor, single point]"}, {"smiles": "Clc1ccc(-c2cc3nc(NCc4cccc(Cl)c4)ccn3n2)cc1", "Potency": "inconclusive: 15.8 µM [inhibitor, single point]"}, {"smiles": "CCn1cc2c(n1)-c1c(oc(C(=O)Nc3cccc(C(F)(F)F)c3)c1C)CC2", "activity, negative = inhibition": "inactive: -26.5%"}, {"smiles": "Cc1onc(-c2ccccc2)c1C(=O)NC(=S)NNC(=O)c1ccco1", "Potency": "inconclusive: 17.8 µM [inhibitor, single point]"}, {"smiles": "Cc1ccc(N(Cc2cc(=O)[nH]c3ccccc23)C(=O)CCl)cc1", "Potency": "inconclusive: 25.1 µM [inhibitor, single point]"}, {"smiles": "COc1ccccc1N(CC(=O)Nc1cc(S(=O)(=O)N(C)C)ccc1C)S(=O)(=O)c1cccs1", "activity, negative = inhibition": "inactive: 1.98%"}, {"smiles": "CCCc1nc2ccccc2c(C(=O)OCC(=O)Nc2ccc(S(=O)(=O)N3CCOCC3)cc2)c1CC", "Potency": "inconclusive: 35.5 µM [inhibitor, single point]"}, {"smiles": "COc1cc(F)c(S(=O)(=O)Nc2c(C)n(C)n(-c3ccccc3)c2=O)cc1OC", "Potency": "inconclusive: 14.1 µM [inhibitor, single point]"}, {"smiles": "CCc1nc(N[C@H](C(=O)O)C(C)CC)c2oc3ccccc3c2n1", "note": "(some centres not stated)", "Potency": "inconclusive: 35.5 µM [inhibitor, single point]"}]}]}
